# Measurements reported in the supplement of paper PMC12217912.
# The list shows a part of the results. The full chains were built here from the parent and the listed change. Values near 0.05 are background.
# B1: TEV protease; numbered along this chain (parent)
# chain: MGESLFKGPRDYNPISSSICHLTNESDGHTTSLYGIGFGPFIITNKHLFRRNNGTLVVQSLHGVFKVKDTTTLQQHLVDGRDMIIIRMPKDFPPFPQKLKFREPQREERICLVTTNFQTKSMSSMVSDTSCTFPSGDGIFWKHWIQTKDGQCGSPLVSTRDGFIVGIHSASNFTNTNNYFTSVPKNFMELLTNQEAQQWVSGWRLNADSVLWGGHKVFMVKPEEPFQPVKEATQL
# Variants of: B1
# Assay: raw area under fraction-flipped curve 0-4 h after induction (AUC4h, not background-subtracted), DNA-recorder readout of cleavage of the substrate (dimensionless); higher = more cleavage of the substrate by the protease variant
# Conditions: temperature: 34 °C; time window: 0-4 h after rhamnose induction
# Description: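 In vivo DNA recorder in E. coli TOP10(DE3) ΔrhaA at 34 °C. Each TEVp single-site mutant (parent TEVp 0) is paired with a single-site variant of the 7-mer TEVs (canonical ENLYFQ|S). The substrate sits between flexible linkers in a Bxb1-sfGFP-TEVs-SsrA fusion, so cleavage stabilises Bxb1 and speeds flipping of a recombination array, read by NGS. The value is the raw area under the fraction-flipped curve over 0-4 h after rhamnose induction (AUC4h), with ≥20 reads per time point. It is not background-subtracted; inactive controls average about 0.047.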
# 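Note: Bxb1 expression induced with 0.2% (w/v) L-rhamnose at OD600 near 0.5, cultures sampled hourly, flipped fraction per protease–substrate barcode pair counted by paired-end Illumina sequencing.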
Variant,area with substrate ENLAFQS,area with substrate ENLDFQS,area with substrate ENLEFQS,area with substrate ENLFFQS,area with substrate ENLHFQS,area with substrate ENLIFQS,area with substrate ENLKFQS,area with substrate ENLNFQS,area with substrate ENLPFQS,area with substrate ENLRFQS,area with substrate ENLSFQS,area with substrate ENLVFQS,area with substrate ENLWFQS,area with substrate ENLGFQS,area with substrate ENLLFQS,area with substrate ENLCFQS,area with substrate ENLMFQS,area with substrate ENLQFQS,area with substrate ENLTFQS
MGESLFKGPRDYNPISSSICHLTNESDGHTTSLYGIGFGPFIITNKHLFRRNNGTLVVQSLHGVFKVKDTTTLQQHLVDGRDMIIIRMPKDFPPFPQHLKFREPQREERICLVTTNFQTKSMSSMVSDTSCTFPSGDGIFWKHWIQTKDGQCGSPLVSTRDGFIVGIHSASNFTNTNNYFTSVPKNFMELLTNQEAQQWVSGWRLNADSVLWGGHKVFMVKPEEPFQPVKEATQL [K98H],0.0573,0.0762,0.0673,0.0945,0.0659,0.117,0.0768,0.0629,0.0642,0.0835,0.0708,0.0954,0.0675,,,,,,
MGESLFKGPRDYNPISSSICHLTNESDGHTTSLYGIGFGPFIITNKHLFRRNNGTLVVQSLHGVFKVKDTTTLQQHLVDGRDMIIIRMPKDFPPFPQKLKGREPQREERICLVTTNFQTKSMSSMVSDTSCTFPSGDGIFWKHWIQTKDGQCGSPLVSTRDGFIVGIHSASNFTNTNNYFTSVPKNFMELLTNQEAQQWVSGWRLNADSVLWGGHKVFMVKPEEPFQPVKEATQL [F101G],0.06,,,,0.0532,,0.0717,,0.0624,,0.0436,,0.062,0.0703,,,,,
MGESLFKGPRDYNPISSSICHLTNESDGHTTSLYGIGFGPFIITNKHLFRRNNGTLVVQSLHGVFKVKDTTTLQQHLVDGRDMIIIRMPKDFPPFPQKLKPREPQREERICLVTTNFQTKSMSSMVSDTSCTFPSGDGIFWKHWIQTKDGQCGSPLVSTRDGFIVGIHSASNFTNTNNYFTSVPKNFMELLTNQEAQQWVSGWRLNADSVLWGGHKVFMVKPEEPFQPVKEATQL [F101P],0.0355,,0.0437,,0.0739,,,0.0512,0.0706,0.0519,0.0575,,0.0409,,0.0499,,,,
MGESLFKGPRDYNPISSSICHLTNESDGHTTSLYGIGFGPFIITNKHLFRRNNGTLVVQSLHGVFKVKDTTTLQQHLVDGRDMIIIRMPKDFPPFPQKLKFLEPQREERICLVTTNFQTKSMSSMVSDTSCTFPSGDGIFWKHWIQTKDGQCGSPLVSTRDGFIVGIHSASNFTNTNNYFTSVPKNFMELLTNQEAQQWVSGWRLNADSVLWGGHKVFMVKPEEPFQPVKEATQL [R102L],0.0577,0.0492,0.0272,0.0481,0.0482,,0.0464,0.0563,0.0502,0.0621,0.0169,,,,0.0378,0.0536,0.0483,,
MGESLFKGPRDYNPISSSICHLTNESDGHTTSLYGIGFGPFIITNKHLFRRNNGTLVVQSLHGVFKVKDTTTLQQHLVDGRDMIIIRMPKDFPPFPQKLKFSEPQREERICLVTTNFQTKSMSSMVSDTSCTFPSGDGIFWKHWIQTKDGQCGSPLVSTRDGFIVGIHSASNFTNTNNYFTSVPKNFMELLTNQEAQQWVSGWRLNADSVLWGGHKVFMVKPEEPFQPVKEATQL [R102S],0.0521,0.0535,0.048,,0.0525,0.0401,,0.0406,0.0419,0.0589,,,0.0375,0.0622,0.0487,0.0486,,,
MGESLFKGPRDYNPISSSICHLTNESDGHTTSLYGIGFGPFIITNKHLFRRNNGTLVVQSLHGVFKVKDTTTLQQHLVDGRDMIIIRMPKDFPPFPQKLKFVEPQREERICLVTTNFQTKSMSSMVSDTSCTFPSGDGIFWKHWIQTKDGQCGSPLVSTRDGFIVGIHSASNFTNTNNYFTSVPKNFMELLTNQEAQQWVSGWRLNADSVLWGGHKVFMVKPEEPFQPVKEATQL [R102V],0.0517,0.0402,0.0413,0.0579,0.0627,,0.041,0.0741,0.0558,0.0481,0.0544,,,,,,0.0613,,
MGESLFKGPRDYNPISSSICHLTNESDGHTTSLYGIGFGPFIITNKHLFRRNNGTLVVQSLHGVFKVKDTTTLQQHLVDGRDMIIIRMPKDFPPFPQKLKFREPQRQERICLVTTNFQTKSMSSMVSDTSCTFPSGDGIFWKHWIQTKDGQCGSPLVSTRDGFIVGIHSASNFTNTNNYFTSVPKNFMELLTNQEAQQWVSGWRLNADSVLWGGHKVFMVKPEEPFQPVKEATQL [E107Q],0.0814,0.0835,,0.0833,0.0696,,0.0657,0.0575,0.0393,,0.0657,,0.0724,,0.0738,0.0801,,0.0539,0.0546
MGESLFKGPRDYNPISSSICHLTNESDGHTTSLYGIGFGPFIITNKHLFRRNNGTLVVQSLHGVFKVKDTTTLQQHLVDGRDMIIIRMPKDFPPFPQKLKFREPQRTERICLVTTNFQTKSMSSMVSDTSCTFPSGDGIFWKHWIQTKDGQCGSPLVSTRDGFIVGIHSASNFTNTNNYFTSVPKNFMELLTNQEAQQWVSGWRLNADSVLWGGHKVFMVKPEEPFQPVKEATQL [E107T],0.0683,,,0.0809,0.0798,,,0.052,0.0943,,,,0.0614,,,,,,0.0813
MGESLFKGPRDYNPISSSICHLTNESDGHTTSLYGIGFGPFIITNKHLFRRNNGTLVVQSLHGVFKVKDTTTLQQHLVDGRDMIIIRMPKDFPPFPQKLKFREPQRVERICLVTTNFQTKSMSSMVSDTSCTFPSGDGIFWKHWIQTKDGQCGSPLVSTRDGFIVGIHSASNFTNTNNYFTSVPKNFMELLTNQEAQQWVSGWRLNADSVLWGGHKVFMVKPEEPFQPVKEATQL [E107V],0.0649,0.0496,0.0615,0.0861,0.0743,0.0695,0.0856,0.0844,0.0656,0.0834,0.0718,,,,,0.0706,0.0635,0.0582,
